T1: SR344 (N-terminal 1st to 344th amino acids of soluble human IL-6R) (human, UniProt P08887 20-344, limits assumed)
T1 sequence (looked up): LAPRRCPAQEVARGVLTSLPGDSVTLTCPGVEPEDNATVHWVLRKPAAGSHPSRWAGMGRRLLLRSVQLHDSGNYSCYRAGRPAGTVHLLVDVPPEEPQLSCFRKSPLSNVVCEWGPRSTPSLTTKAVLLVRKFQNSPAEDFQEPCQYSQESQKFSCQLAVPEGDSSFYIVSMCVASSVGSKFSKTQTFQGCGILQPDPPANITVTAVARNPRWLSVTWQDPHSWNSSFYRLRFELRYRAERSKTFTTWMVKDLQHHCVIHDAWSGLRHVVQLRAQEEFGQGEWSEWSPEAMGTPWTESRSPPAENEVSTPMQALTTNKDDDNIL


Assays:
[1] = molecular target: T1, SR344 (N-terminal 1st to 344th amino …); test: cell-based or functional assay
[2] = molecular target: T1, SR344 (N-terminal 1st to 344th amino …); test: SPR (Biacore T100), antibody captured on anti-IgG (γ-chain specific) F(ab')2, SR344 as analyte, pH 7.4, 37 C; determined with Fv5-IgG1
[3] = molecular target: T1, SR344 (N-terminal 1st to 344th amino …); test: SPR (Biacore T100), SR344 as analyte, 37 C; determined with Fv5-IgG1

Row | BaF/gp130-neutralizing activity, 50% inhibitory concentration against TOCILIZUMAB [1] | BaF/gp130-neutralizing activity, 50% inhibitory concentration against the control (VQ8F11-21 hIgG1) [1] | Kd [2] | koff [2] | fold higher affinity than TOCILIZUMAB [3] | Binder
1 | > 100 fold | ~10 fold |  |  |  | Fv5-M83 (antibody, human IgG1, kappa) heavy: QVQLQESGPGLVKPSETLSLTCAVSGYSISDDHAVSWVRQPPGEGLEWIGFISYSGITNYNPTLQDRVTISRDNSKNTLYLQMNSLRAEDTAVYYCARLLARATAMDVWGEGTLVTVSS[sequence of human IgG1 constant region with changes not given] light: DIQMTQSPSSLSASVGDSVTITCQASQDISSYLNWYQQKPGKAPELLIYYGSELESGVPSRFSGSGSGTDFTFTISSLEAEDAATYYCGQGNRLPYTFGQGTKVEIERTVAAPSVFIFPPSDEQLKSGTASVVCLLNNFYPREAKVQWKVDNALQSGNSQESVTEQDSKDSTYSLSSTLTLSKADYEKHKVYACEVTHQGLSSPVTKSFNRGEC
2 |  |  | 0.025 nM | 2.8e-05 s⁻¹ | ~100 fold | Fv5-IgG1 (antibody, also called VH5-IgG1/VL5-kappa) heavy: QVQLQESGPGLVKPSETLSLTCAVSGYSISDDHAVSWVRQPPGEGLEWIGFISYSGITNYNPTLQDRVTISRDNSKNTLYLQMNSLRAEDTAVYYCARLLARATAMDVWGEGTLVTVSS[sequence of human IgG1 constant region not given] light: DIQMTQSPSSLSASVGDSVTITCQASQDISSYLNWYQQKPGKAPELLIYYGSELESGVPSRFSGSGSGTDFTFTISSLEAEDAATYYCGQGNRLPYTFGQGTKVEIERTVAAPSVFIFPPSDEQLKSGTASVVCLLNNFYPREAKVQWKVDNALQSGNSQESVTEQDSKDSTYSLSSTLTLSKADYEKHKVYACEVTHQGLSSPVTKSFNRGEC
